# Data published in PubChem BioAssay AID1347073 (National Center for Advancing Translational Sciences (NCATS), 2019).
# Among all 45,000 compounds or so, about 200 (0.44%) were called active. Not shown: some 7% with an inconclusive outcome. The call rests on the fitted dose curve; in most records, active means well fitted activation curve with a large enough effect; inconclusive means small, poorly fitted or top-dose-only effect; inactive means no such curve, though single readings can be large or run the other way. This is one part of the list.
# Test: qHTS of TDP-43 Inhibitors: NCGC Sytravon Library Screen; further: 0% is about no effect; nearly all actives have a fitted effect of over 55% in size
# Conditions: yeast TDP-43 toxicity rescue, BacTiter-Glo growth, 24 h; series mostly up to 46.1 µM; growth rescue (activation): at the top concentration
# Summary of the method: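 TDP-43-expressing yeast, pregrown in raffinose, seeded at OD600 0.02 in galactose medium with compound for 24 hr at 30 deg C. Growth read by BacTiter-Glo luminescence, so rescue of toxicity appears as activation.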
row,Structure (SMILES),growth rescue (activation)
1,COc1ccc(C2C(C(=O)N3CCN(c4ccccn4)CC3)CCC(=O)N2c2cc(OC)c(OC)c(OC)c2)cc1 (configuration not stated),inactive: 5.95%
2,CCOc1ccc(NC(=O)CC2C(=O)N(c3ccc(OCC)cc3)C(=S)N2C2CC2)cc1 (configuration not stated),inactive: 15.8%
3,CCN(CC)Cc1c(C(=O)N/N=C/c2cccnc2)nnn1-c1nonc1N,inactive: -3.12%
4,CC(C)CCNC(=O)CN1C(=O)c2cccnc2Oc2ccccc21,inactive: 3.66%
5,COCCn1c(SCC(=O)NCc2ccc3c(c2)OCO3)nc2ccccc2c1=O,inactive: -1.84%
6,COc1ccc(CNC(=O)CCN2C(=O)c3ccccc3C2=O)cc1OC,inactive: 11.3%
7,CCn1nc(C)c(CNC(=O)CCc2nnc(-c3ccc(C(C)=O)s3)o2)c1C,inactive: 4.9%
8,Cc1cccc2sc(NC(=O)CN3C(=O)c4ccccc4C3=O)nc12,inactive: -10.6%
9,O=C(NCc1cccc(F)c1)Nc1nnc([C@@H]2C[C@H](O)[C@@H](CO)O2)s1,inactive: 4.19%
10,COc1ccc(/C=N/N(C)C2=NS(=O)(=O)c3ccccc32)cc1OC,inactive: 6.55%
11,Cc1ccc(F)cc1NC(=O)CSc1n[nH]c(N)n1,inactive: 22.9%
12,COc1cccc(CNC(=O)c2ccc3c(c2)N(Cc2ccc(C(F)(F)F)cc2)C(=O)c2ccccc2S3)c1OC,inactive: 3.5%
13,CCOC(=O)C1(CCCc2ccccc2)CCN(C(=O)C2CCCN(C(N)=O)C2)CC1 (configuration not stated),inactive: 11.1%
14,CCC(=O)N(C)CCc1cc2c(c(OC)c1/C=N/NC(=O)c1ccccc1O)OCO2,inactive: 18.7%
15,CCN(C(=O)CSc1nnc(-c2ccco2)n1Cc1ccccc1)C1CCS(=O)(=O)C1 (configuration not stated),inactive: -5.79%
16,CCSc1c(C(=O)NC)ccc2c1C(=O)c1ccccc1C2=O,inactive: -20.7%
17,Oc1ccc(N2Cc3ccccc3C2)cc1,inactive: -13.3%
18,CSCCC(NC(=O)c1ccccc1)C(=O)NCCc1ccccc1 (configuration not stated),inactive: 16.3%
19,CN1CCN(C(=O)/C=C/c2ccc3c(c2)OCO3)CC1,inactive: 15%
20,Cc1sc2ncn(CC(=O)NCCCOC(C)C)c(=O)c2c1S(=O)(=O)N1CCN(c2ncccn2)CC1,inactive: -2.02%
21,Cc1c(C(=O)NCc2nnc(-c3ccccc3)o2)oc2c(F)cccc12,inactive: 8.11%
22,CCN(CC)C(=O)Oc1ccc(Br)c2ccccc12,inactive: 26.7%

row,Structure (SMILES),growth rescue (activation)
1,Cc1cc(C)c(OCC(=O)NCC2COc3ccccc3O2)c(C)c1 (configuration not stated),inactive: 9.68%
2,COc1ccc(NC(=O)c2cc(C3CCCCN3S(=O)(=O)c3cccs3)on2)c(C)c1 (configuration not stated),inactive: 20.3%
3,COc1ccc(S(=O)(=O)N(C)CC(=O)NCCCN2CCOCC2)cc1C,inactive: 4.14%
4,Nc1nc(C(F)(F)F)cc(=O)n1N,inactive: 0.235%
5,CSc1ccccc1NC(=O)CNCCCN1CCOCC1,inactive: -31%
6,CC(C)(C)C(=O)CSc1ncnc2sc3c(c12)CCC3,inactive: 25.4%
7,CC1(C)CC(=O)C(C(C2=C(O)CC(C)(C)CC2=O)c2ccc(O)c([N+](=O)[O-])c2)=C(O)C1,inactive: -5.28%
8,O=C(CN1CCN(C(=O)C2CC2)CC1)Nc1ccc(Cl)cc1F,inactive: 9.12%
9,Cc1nnc(SCSc2nnc(C)s2)s1,inactive: 5.59%
10,Cc1cc(C)nc(Nc2n[nH]c(C)n2)n1,inactive: -4.22%
11,CCOC(=O)c1ccc(Oc2coc3cc(O)ccc3c2=O)cc1,inactive: -0.294%
12,O=C(CNS(=O)(=O)c1ccccc1)OCc1cccc([N+](=O)[O-])c1,inactive: 10.5%
13,CCC(C)C(NC(N)=O)C(=O)Nc1ccc(C(=O)OC)cc1 (configuration not stated),inactive: 9.13%
14,CS(=O)(=O)N1CCc2cc(C(=O)O)ccc21,inactive: -17.6%
15,CCOc1ccc(OCC)c(N=c2oc3c(C)ncc(CO)c3cc2C(N)=O)c1,inactive: 15.2%
16,Cc1ccc(-c2nnc(Nc3ccc4c(c3)OCO4)c3ccccc23)cc1S(=O)(=O)NCCO,inactive: -20.9%
17,O=C(c1cccs1)c1cn(CC(=O)N2CCc3ccccc3C2)c2ccccc12,inactive: -26.7%
18,CCOC(=O)c1cc(-c2ccc(N3CCOCC3)cc2)nn1-c1ccc(F)cc1F,inactive: 14.9%
19,O=C(CN1CCN(Cc2ccccc2)CC1)N/N=C/C=C/c1ccco1,inactive: -0.741%
20,NC(=O)COc1ccc2oc(-c3ccccc3)cc(=O)c2c1,inactive: 6.12%
21,CCOC(=O)/C(=C/c1ccc(OC)cc1)NC(=O)c1ccco1,inactive: 10.5%
22,O=C(OCC(=O)N1N=C(c2ccc(Cl)cc2)CC1c1ccco1)c1cncc(Br)c1 (configuration not stated),inactive: 19.4%

row,Structure (SMILES),growth rescue (activation)
1,COc1cc(NC(=S)NCc2ccc(S(N)(=O)=O)cc2)c(OC)cc1Cl,inactive: 7.88%
2,O=[N+]([O-])c1ccccc1/C=C/c1ccc2ccccc2n1,inactive: 10.2%
3,O=C(OC1CCOC1=O)c1cccc(S(=O)(=O)Nc2cccc(Cl)c2)c1 (configuration not stated),inactive: 6.16%
4,CC(C)N(C(=S)Nc1ccc(S(=O)(=O)N2CCOCC2)cc1)c1ccccc1,inactive: -10.3%
5,COc1ccccc1NC(=O)Nc1nc(C(N)Cc2ccc(Cl)cc2)cs1 (configuration not stated),inactive: 12%
6,Cc1cc(C)n2nc(C(=O)NCc3ccco3)cc2n1,inactive: 12.3%
7,CCn1nnnc1SCC(=O)Nc1ccc(N(C)C)cc1,inactive: -2.37%
8,Oc1ccc(-c2ccccc2)cc1CN1CCCCCC1,inactive: -10.4%
9,CCc1ccccc1N1C(=O)c2ccccc2S1(=O)=O,inactive: -7.58%
10,CCOC(=O)c1sc2nc(C)nc(Nc3ccccc3)c2c1C,inactive: 5.23%
11,CCN(CC(=O)NCc1ccc(F)cc1)C(=O)c1oc2ccccc2c1C,inactive: 16.3%
12,NS(=O)(=O)c1cccc(NC(=O)COC(=O)C2(c3cccc(F)c3)CCCC2)c1,inactive: -7.79%
13,COC(=O)c1cc(OCC(=O)Nc2ccc3c(c2)CCC3)cc(C(=O)OC)c1,inactive: 2.68%
14,CC(=O)NC(CC(=O)Nc1nc(-c2ccccc2)c(C(C)=O)s1)c1ccccc1 (configuration not stated),inactive: -18.8%
15,COc1ccccc1/C=N/n1nnnc1N,inactive: -12.1%
16,COc1cccc(N2CCN(CC(=O)Nc3nc(C)c(C(=O)N(C)C)s3)CC2)c1,inactive: 3.71%
17,COc1cc(-c2cc(NC(C)=O)c3ncc(-c4ccc(F)cc4)n3c2)cc(OC)c1OC,inactive: 9.51%
18,COc1ccc(CN2CCN(C(=O)CC(C)C)CC2)c(OC)c1OC,inactive: -1.35%
19,CCCOc1ccccc1/C=C(\C#N)C(=O)Nc1cccnc1,inactive: 23.5%
20,CC(C)(C)NC(=O)C(=O)NCCC1=CCCCC1,inactive: 8.6%
21,CCN(CC)CCNC(=O)/C(=C/c1cn(C)c2ccccc12)NC(=O)c1ccc(OC)c(OC)c1,inactive: 4.8%
22,CN(CC(=O)OCC(=O)c1c(N)n(C)c(=O)n(C)c1=O)S(=O)(=O)c1ccc(Cl)cc1,inactive: 10.5%

row,Structure (SMILES),growth rescue (activation)
1,Cc1ccc2nc(-c3cccc(NC(=O)CSc4ccc(Cl)cc4)c3)oc2c1,inactive: 1.38%
2,CCN(c1cccc(C)c1)S(=O)(=O)c1cccc2nsnc12,inactive: 25.5%
3,Cc1cc(C(=O)CN2C(=O)NC(C)(CC(C)C)C2=O)c(C)n1-c1ccc2c(c1)OCO2 (configuration not stated),inactive: -34.7%
4,O=C(CNc1ccc2ccccc2c1)N/N=C/C=C/c1cccc([N+](=O)[O-])c1,inactive: -3.35%
5,O=C(COC(=O)c1ccc(Br)cc1)NC1CCCC1,inactive: 1.15%
6,Cc1ccc(/C=N/Nc2ccc(C(=O)O)cc2)o1,inactive: -0.423%
7,COc1ccccc1NC(=O)CCC(=O)c1ccc(-c2ccccc2)cc1,inactive: -2.13%
8,COc1cccc(CC(NC(C)=O)C(=O)NC2CCN(S(=O)(=O)c3ccc(F)cc3)CC2)c1OC (configuration not stated),inactive: 8.65%
9,CC(=O)Nc1cc(C(=O)NCc2ccco2)ccc1Sc1ccc(C)cc1,inactive: -29.7%
10,CCc1nnc(SCc2cccc(Cl)c2)c2cc3sccc3n12,inactive: 2.34%
11,COc1cc(C2C(C#N)=C(N)Oc3c2ccc2ccccc32)ccc1OCC(=O)Nc1ccc(C)cc1 (configuration not stated),inactive: 10.9%
12,C=CC[n+]1c(-c2ccc(Cl)cc2Cl)csc1Nc1ccc(NC(C)=O)cc1,inactive: -41.3%
13,CCCC(=O)Nc1cccc(NC(=S)NC(=O)C(C)Oc2ccc(Cl)cc2Cl)c1 (configuration not stated),inactive: 27%
14,COc1ccc(C(C)(C)C)cc1S(=O)(=O)n1ccnc1C,inactive: 29.9%
15,CNC(=O)CSc1nnc(-c2ccc3c(c2)OCO3)n1C,inactive: -7.68%
16,O=C(c1cccs1)N(Cc1cc2ccccc2[nH]c1=O)CC1CCCO1 (configuration not stated),inactive: -0.588%
17,COc1ccc(N2CCN(C(=O)[C@H](C)NC(=O)c3ccccc3Cl)CC2)cc1,inactive: -7.34%
18,Cc1nc2sc(C(c3cccc(F)c3)N3CC(C)OC(C)C3)c(O)n2n1 (configuration not stated),inactive: 23.8%
19,O=C1c2cccc3c(O)ccc(c23)C(=O)N1c1ccc(Cl)cc1,inactive: -27.1%
20,O=C(Nc1ccccc1)N(CCN1CCOCC1)Cc1ccccc1F,inactive: 6.55%
21,COc1ccc2c(c1OC)C(=O)N1c3ccccc3C(=O)N(c3ccc(F)cc3)C21 (configuration not stated),inactive: 13.6%
22,OCCC1CN(Cc2ccc(C(F)(F)F)cc2)CCN1Cc1ccccc1 (configuration not stated),inactive: 12.5%

row,Structure (SMILES),growth rescue (activation)
1,CC1(C(=O)O)CCCN1C(=O)c1ccccc1OC(F)(F)F (configuration not stated),inactive: -0.661%
2,C[C@]12CC[C@H](O)CC1=CCC1C2CC[C@@]2(C)C1CC[C@@H]2NC(=O)[C@@H](N)Cc1cnc[nH]1 (some centres not stated),inactive: -11.8%
3,O=C(NCc1cccs1)c1csc([C@@H]2C[C@H](O)[C@@H](CO)O2)n1,inactive: 0.917%
4,Cc1[nH]nc(SCC(=O)N2CCOCC2)c1[N+](=O)[O-],inactive: -12.2%
5,CC(N)c1csc(NC(=O)Nc2cccc(C(F)(F)F)c2)n1 (configuration not stated),inactive: 2.26%
6,CC(=O)N1CCC(N(CCN2CCOCC2)C(=S)Nc2ccccc2C)CC1,inactive: 7.77%
7,O=C(Nc1cccc(C(F)(F)F)c1)c1ccc2sc([C@H]3C[C@H](O)[C@@H](CO)O3)nc2c1,inactive: 4.38%
8,CCN(CC)c1ccc(/C=N/NC(=O)c2ccccn2)cc1,inactive: 7.82%
9,COc1ccc(-c2[nH]ncc2-c2cscn2)c(O)c1,inactive: -6.61%
10,CCn1cnc2c1c(=O)n(Cc1cccc([N+](=O)[O-])c1)c(=O)n2Cc1ccccc1,inactive: 26.9%
11,COc1ccc2nc(SCC(=O)NC3CCCc4ccccc43)[nH]c2c1 (configuration not stated),inactive: 21.4%
12,CNc1c(NC(=O)C2CCC(C)CC2)c(=O)oc2ccccc12 (configuration not stated),inactive: 5.33%
13,Cc1cc(OC(C)C(=O)Nc2cccnc2)ccc1Cl (configuration not stated),inactive: 4.9%
14,O=C(COC(=O)COc1ccc(Cl)cc1)NC1CCCCCC1,inactive: 18.1%
15,Cc1cccc(NC(=O)COc2ccc(Br)cc2/C=N/O)c1,inactive: -29%
16,COc1ccc(OC)c(/C(C)=N/Nc2ccc(C(=O)O)cc2)c1,inactive: 16.7%
17,O=C(NCCc1ccc(O)cc1)c1ccc(Cl)cc1,inactive: 10%
18,Oc1c(Br)cc(Br)c(/C=N/n2c(-c3ccccc3)n[nH]c2=S)c1Br,inactive: -91.4%
19,O=C(N[C@@H](Cc1ccccc1)C(=O)NCCc1c[nH]c2ccccc12)c1ccco1,inactive: -0.256%
